Experimental data from paper PMC12136788.
The other results are listed elsewhere or left out.

B1: chr3:124966548:124966651:-|3pUTR|ENSG00000173706|unk|FALSE|bound_elsewhere (ssRNA)
RNA: GGGAGUUCUACAGUCCGACGAUCAGGAAGAAUGCAAAGUUCAGUAUUUCAAUACUUUGUAUUUUACUUGAAAUUACCCUUAGUAGCAUCUUUUUUUUCCUGUCUGAAAGCUUUUGUGUGGAUGAGAAGGGACAUUUCAUUUCCCAACAGAGGAUUGAGCAUCA
B2: chr3:196782704:196782805:+|CDS|ENSG00000180370|unk|FALSE|bound_elsewhere (ssRNA)
RNA: GGGAGUUCUACAGUCCGACGAUCAACGGAGAACUGGAAGAUAAGCCUCCAGCACCUCCUGUGCGAAUGAGCAGCACCAUCUUUAGCACUGGAGGCAAAGACCCUUUGUCAGCCAAUCACAGUUUGAAACCUUUGCCCUCUGUUCAACAGAGGAUUGAGCAUCA
B3: chr13:52643008:52643109:+|CDS|ENSG00000139675|unk|FALSE|unique (ssRNA)
RNA: GGGAGUUCUACAGUCCGACGAUCCAUACUGUGAAGGGCCACAACUGUGAAGUUAGAAAAGCCCUGCCAAAGCAAGAGAUGGCUAGUGCUUCAUCCAGCCAAAGAGGUCGAAGGGGUUCUGGAAACUUUGGUGGUGGUCGUGGACAACAGAGGAUUGAGCAUCA
B4: chr11:119045269:119045370:-|3pUTR|ENSG00000149428|msi1|total|mutant (ssRNA)
RNA: GGGAGUUCUACAGUCCGACGAUCUGUGGUUAAAAAUGGAAACUGUUCUCCUCCCCAGCCCCACUCCCUGUUCCCUACCCAUACCGGCCCUAAAUUUGGGAAAAAUCACUAUUAAUUUCUGAAUCCUUUGCCUGUGGGCCGGAACAACAGAGGAUUGAGCAUCA
B5: chr8:72021249:72022905:-|three_prime_utr|ENSG00000104321|control|control|control (ssRNA)
RNA: GGGAGUUCUACAGUCCGACGAUCGCAGAUAUGUUCAAAUUGGACUGGACUUUGAUGAGAUAUAAUCUCAUUAUUUGAAUGGGUAGAAAAUGAAUUUGCUAGAACACACAUUUUUAAUGAAAAGAAGUAAUAAAUGUAACUAUUCAACAGAGGAUUGAGCAUCA
B6: chrX:153907366:153907962:-|three_prime_utr|ENSG00000089820|control|control|control (ssRNA)
RNA: GGGAGUUCUACAGUCCGACGAUCAGGCUUCUCCCGGGGCCCUGGGGCCCCAGCCUCACCCUCAGCUUCCCACCCCCAGGGCCUAGACACGACCCCCAAGCCACACUGAGGUGCCGCUGCUGGAGAUGCGUGCCCCCGGCGGCUCAACAGAGGAUUGAGCAUCA

What follows are binders tested against MSI1 full-length (mouse, UniProt Q61474 1-362) (assay: nsRBNS (natural sequence RNA bind-n-seq); RBNS binding buffer (assumed for nsRBNS): 25 mM Tris pH 7.5, 150 mM KCl, 3 mM MgCl2, 0.01% Triton X-100, 500 ug/ml BSA, 20 U/ml SUPERase-In, 4 C; UNK is unkempt and MSI1 is Musashi-1; names of the RNAs are library labels; protein concentration not given here; high values mean tight binding).
UniProt Q61474, sequence (Q61474 whole entry): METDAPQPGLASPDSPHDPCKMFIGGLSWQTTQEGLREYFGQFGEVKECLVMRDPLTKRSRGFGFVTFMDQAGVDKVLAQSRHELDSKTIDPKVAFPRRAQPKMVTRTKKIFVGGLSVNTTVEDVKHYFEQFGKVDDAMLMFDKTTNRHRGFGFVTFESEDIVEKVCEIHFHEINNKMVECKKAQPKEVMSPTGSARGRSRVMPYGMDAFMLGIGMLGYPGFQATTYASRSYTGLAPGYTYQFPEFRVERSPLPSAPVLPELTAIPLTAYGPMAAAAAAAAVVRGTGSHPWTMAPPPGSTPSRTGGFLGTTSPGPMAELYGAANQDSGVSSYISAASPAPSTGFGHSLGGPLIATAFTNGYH

Row | Binder | binding signal [enrichment R]
1 | B1 | 0.879
2 | B2 | 0.353
3 | B3 | 0.428
4 | B4 | 0.426
5 | B5 | 2.75
6 | B6 | 0.545
